Structures are written as SMILES.

The first assay deals with Plasmopara viticola—PLASVI. Briefly: whole plant or invertebrate. The conditions noted are these: Plasmopara, 24 h, read-out: PLASVI in vivo 1 Day Protectant, 100 ppm, 24 hour protectant, grape; control of fungal infection vs untreated plants. Format: in vivo.
For the compound `COc1ccnc(C(=O)N[C@@H]2CC3CC2C[C@@H]3COCc2cccc(C(F)(F)F)c2)c1O` (stereo partly drawn) [Compound 297], the pest or weed control at 100 ppm fell in the range of 25 to 74%. Turning to `COc1ccnc(C(=O)N[C@H]2CC(C)(C)[C@H](O)C(C)(C)C2)c1O` [Compound 264, trans-4-HYDROXY-3,3,5,5-TETRAMETHYLPICOLINAMIDE], the pest or weed control at 100 ppm is less than 25%.

On to `COc1ccnc(C(=O)NC2CCN(Cc3cccc(C(F)(F)F)c3)CC2)c1O` [Compound 307], for which the pest or weed control at 100 ppm is less than 25%. Still for that read-out and setting: then `COc1ccnc(C(=O)NC2CC(C)(C)CC(C)(C(=O)OCCC(C)(C)C)C2)c1O` (stereo not drawn) [Compound 261], with 25 to 74%; and `CCC1(C)OCC(NC(=O)c2nccc(OC)c2O)CO1` (stereo not drawn) [Compound 314], with 25 to 74%; and `COc1ccnc(C(=O)NC2CCCC(Sc3ccc(C(F)(F)F)cn3)C2)c1O` (stereo not drawn) [Compound 274], with 25 to 74%. As for `COc1ccnc(C(=O)NC2CC(C)(C)CC(C)(C(=O)CCCc3ccccc3)C2)c1O` (stereo not drawn) [Compound 276], the pest or weed control at 100 ppm lay within 25 to 74%. For the compound `Cc1ccnc(C(=O)NC2CC(C)(C)CC(C)(C)C2)c1O` [Compound 236], the pest or weed control at 100 ppm is less than 25%. With `COc1ccnc(C(=O)NC2CCCC2O)c1O` (stereo not drawn) [Compound 248], the pest or weed control at 100 ppm was less than 25%. As for `COc1ccnc(C(=O)NC2CC(C(F)(F)F)CC(C(F)(F)F)C2)c1O` (stereo not drawn) [Compound 256], the pest or weed control at 100 ppm is less than 25%. With `COc1ccnc(C(=O)NC2CC(C)(C)CC3(C2)CC3(F)F)c1O` (stereo not drawn) [Compound 255], the pest or weed control at 100 ppm was less than 25%.

As to `COc1ccnc(C(=O)N[C@H]2CC3CC2[C@H](COCc2cccc(C(F)(F)F)c2)C3)c1O` (stereo partly drawn) [Compound 294], the pest or weed control at 100 ppm is 25 to 74%. On the same count and under the same terms, then `COc1ccnc(C(=O)NC(C)c2ccc(C(F)(F)F)cc2)c1O` (stereo not drawn) [Compound 247], with 25 to 74%; and `COc1ccnc(C(=O)NC2CC(C)(C)C=CC(C)C2C)c1O` (stereo not drawn) [Compound 279], with less than 25%. In the case of `Cc1ccnc(C(=O)NC2COC(=O)[C@H](Cc3ccccc3)[C@@H](OC(=O)C(C)C)[C@H](C)OC2=O)c1O` (stereo partly drawn) [Compound 237], the pest or weed control at 100 ppm is less than 25%.

Take `O=C(NCc1cccc(Cl)c1)c1ncccc1O` [Compound 219]: the pest or weed control at 100 ppm was in the range of 25 to 74%. As to `CCC1(C)CC(NC(=O)c2nccc(OC)c2O)CC(C)(C)C1` (stereo not drawn) [Compound 251], the pest or weed control at 100 ppm was in the range of 25 to 74%. As to `COc1ccnc(C(=O)NC2C3CSC2CN(Cc2ccccc2)C3)c1O` (stereo not drawn) [Compound 325], the pest or weed control at 100 ppm is 25 to 74%. Turning to `COc1ccnc(C(=O)NCC(C)(C)Sc2ncc(C(F)(F)F)cc2Cl)c1O` [Compound 244], the pest or weed control at 100 ppm was less than 25%. On to `CCCCC1(C)CC(NC(=O)c2nccc(OC)c2O)CC(C)(C)C1` (stereo not drawn) [Compound 253], for which the pest or weed control at 100 ppm is less than 25%. As for `COc1ccnc(C(=O)NC2CCC[C@H]3[C@H]4CC[C@H](C4)[C@@H]23)c1O` (stereo partly drawn) [Compound 291], the pest or weed control at 100 ppm was less than 25%. Take `CC1(C)CC(NC(=O)c2ncccc2O)CC(C)(C2CC2)C1` (stereo not drawn) [Compound 204]: the pest or weed control at 100 ppm is less than 25%. Still for that read-out and setting: then `O=C(NCc1ccc(Cl)cc1)c1ncccc1O` [Compound 220], with 25 to 74%; and `COc1ccnc(C(=O)NC/C=C(\C)CCC=C(C)C)c1O` [Compound 242], with less than 25%.

The assay is the same for the next values; noted with them: Plasmopara, 24 h, read-out: PLASVI in vivo 1 Day Protectant, 100 ppm, grape, 24 hour protectant, % control of fungal infection vs untreated plants.
In the case of `COCCC(=O)Oc1c(OC)ccnc1C(=O)Nc1ccc(Sc2cccc(C(F)(F)F)c2)cc1` [Compound 712], the pest or weed control at 100 ppm fell in the range of 25 to 74%. On the same count and under the same terms, then `C/C=C/C(=O)Oc1c(OC)ccnc1C(=O)N[C@H]1COC(=O)[C@H](Cc2ccccc2)[C@@H](OC(=O)C(C)C)[C@H](C)OC1=O` [Compound 600], with less than 25%; and `COc1ccnc(C(=O)N[C@H]2COC(=O)[C@H](Cc3ccccc3)[C@@H](OC(=O)C(C)C)[C@H](C)OC2=O)c1OC(=O)C1CCCCC1` [Compound 612], with less than 25%; and `COCCC(=O)Oc1c(OC)ccnc1C(=O)Nc1ccc(C(=O)Nc2cccc(C(F)(F)F)c2)cc1` [Compound 713], with 25 to 74%. Turning to `COc1ccnc(C(=O)Nc2ccc(C(=O)Oc3ccc(C(F)(F)F)cc3)cc2)c1OC(C)=O` [Compound 717], the pest or weed control at 100 ppm was less than 25%.

Regarding `COc1ccnc(C(=O)Nc2ccc(Sc3cccc(C(F)(F)F)c3)cc2)c1OC(C)=O` [Compound 711], the pest or weed control at 100 ppm is less than 25%.

Still in this assay, the particulars now being: Plasmopara, 24 h, read-out: PLASVI in vivo 1 Day Protectant, 100 ppm, grape, 24 hour protectant; control of fungal infection vs untreated plants.
For `COc1ccnc(C(=O)N[C@H]2[C@@H](OC(C)=O)O[C@H](COC(C)=O)[C@@H](OC(C)=O)[C@@H]2OC(C)=O)c1O` [Compound 335], the pest or weed control at 100 ppm is less than 25%.

`COC(=O)C(COC(=O)CC(C)OC(=O)C(C)C)NC(=O)c1nccc(OC)c1O` (stereo not drawn) [Compound 347]: the pest or weed control at 100 ppm is less than 25%. On to `COc1ccnc(C(=O)N[C@H]2COC(=O)[C@H](Cc3ccccc3)[C@@H](OC(=O)C3CC3)[C@H](C)OC2=O)c1O` [Compound 387], for which the pest or weed control at 100 ppm was less than 25%. On to `CCCO[C@@H]1[C@@H](OCCC)[C@H](OCCC)CO[C@H]1NC(=O)c1nccc(OC)c1O` [Compound 331], for which the pest or weed control at 100 ppm was less than 25%. For the compound `COC(=O)C(COC(=O)C(C)c1ccccc1)NC(=O)c1nccc(OC)c1O` (stereo not drawn) [Compound 343], the pest or weed control at 100 ppm was less than 25%. With `COc1ccnc(C(=O)Nc2ccc(C(=O)c3ccc(C(F)(F)F)cc3)cc2)c1O` [Compound 406], the pest or weed control at 100 ppm is less than 25%. For the compound `COc1ccnc(C(=O)Nc2cccc(NC(=O)c3ccc(C(F)(F)F)cc3)c2)c1O` [Compound 454], the pest or weed control at 100 ppm is less than 25%. `COc1ccnc(C(=O)Nc2ccc(Oc3cccc(C#N)c3)cc2)c1O` [Compound 421]: the pest or weed control at 100 ppm is less than 25%.

As for `COc1ccnc(C(=O)NC2COC(=O)C[C@H](NC(=O)OCc3ccccc3)C(=O)OC2)c1O` (stereo partly drawn) [Compound 376], the pest or weed control at 100 ppm lay in the range of 25 to 74%. In the case of `COc1ccnc(C(=O)Nc2cccc(Oc3ccccc3Cl)c2)c1O` [Compound 439], the pest or weed control at 100 ppm is less than 25%. On to `COc1cccc(Oc2cccc(NC(=O)c3nccc(OC)c3O)c2)c1` [Compound 431], for which the pest or weed control at 100 ppm was less than 25%. Turning to `COc1ccnc(C(=O)N[C@@H]2C(=O)O[C@@H](C)C[C@@H](C)C(=O)O[C@@H]2C)c1O` [Compound 381], the pest or weed control at 100 ppm is less than 25%.

Still in this assay, the particulars now being: Plasmopara, 24 h, read-out: PLASVI in vivo 1 Day Protectant, grape plants, 100 ppm, 24 hour protectant; control of fungal infection vs untreated plants.
Consider `COc1ccnc(C(=O)NC(COC(=O)C(C)Cc2ccccc2)C(=O)OC(C)C)c1OC(C)=O` (stereo not drawn) [Compound 588], for which the pest or weed control at 100 ppm was less than 25%. As to `O=C(Nc1ccc(Oc2cccc(C(F)(F)F)c2)cc1)c1nccnc1O` [Compound 535], the pest or weed control at 100 ppm was 25 to 74%.

As for `CSc1nnc(C(=O)NC2CCCCCCC2)c(O)n1` [Compound 546], the pest or weed control at 100 ppm fell in the range of 25 to 74%. Turning to `O=C(Nc1ccc(Oc2cccc(C(F)(F)F)c2)cc1)c1nscc1O` [Compound 551], the pest or weed control at 100 ppm is less than 25%. On the same count and under the same terms, in the case of `CC1(C)CC(NC(=O)c2nccnc2O)CC(C)(C)C1` [Compound 533] it was 25 to 74%. Same read-out and setting: in the case of `CC1(C)CC(NC(=O)c2conc2O)CC(C)(C)C1` [Compound 560] it was 25 to 74%. On to `COc1ccnc(C(=O)N[C@H]2CO[C@H](C(C)Cc3ccc(C(C)(C)C)cc3)OC2)c1OC(C)=O` (stereo partly drawn) [Compound 594], for which the pest or weed control at 100 ppm lay in the range of 25 to 74%.

In the case of `Cc1ccnc(C(=O)NC2CC(C)(C)CC(C)(C)C2)c1OC(=O)C(C)C` [Compound 571], the pest or weed control at 100 ppm is less than 25%. `C=C1COC(=O)[C@@H](NC(=O)c2nccc(OC)c2OC(C)=O)COC(=O)C1` [Compound 595]: the pest or weed control at 100 ppm lay within 25 to 74%. Still for that read-out and setting: in the case of `CC1(C)CC(NC(=O)c2nc3ccccc3nc2O)CC(C)(C)C1` [Compound 563] it was less than 25%.

Consider `CSc1nnc(C(=O)Nc2ccc(Oc3cccc(C(F)(F)F)c3)cc2)c(O)n1` [Compound 548], for which the pest or weed control at 100 ppm was 25 to 74%. Still for that read-out and setting: then `COc1ccnc(C(=O)N[C@@H]2C[C@@H](C(F)(F)F)C[C@@H](C(F)(F)F)C2)c1OC(C)=O` [Compound 577], with less than 25%; and `COCCC(=O)Oc1cccnc1C(=O)N[C@H]1COC(=O)[C@H](Cc2ccccc2)[C@@H](OC(=O)C(C)C)[C@H](C)OC1=O` [Compound 569], with 25 to 74%. Consider `CC(C)C(=O)O[C@H]1[C@H](C)OC(=O)[C@@H](NC(=O)c2nc(Cl)c(Cl)nc2O)COC(=O)[C@@H]1Cc1ccccc1` [Compound 538], for which the pest or weed control at 100 ppm is 25 to 74%. In the case of `CC1(C)CC(NC(=O)c2cc(O)cnc2O)CC(C)(C)C1` [Compound 526], the pest or weed control at 100 ppm is less than 25%.

Take `CCOc1ccnc(C(=O)NC2CC(C)(C)CC(C)(C)C2)c1O` [Compound 474]: the pest or weed control at 100 ppm is less than 25%.

For the compound `CC1(C)CC(NC(=O)c2nccc(Cl)c2O)CC(C)(C)C1` [Compound 480], the pest or weed control at 100 ppm is less than 25%. With `COc1ccnc(C(=O)Nc2ccc(Oc3ccnc(C(F)(F)F)c3)cc2)c1O` [Compound 465], the pest or weed control at 100 ppm is less than 25%. Turning to `COc1ccc(CNC(=O)c2nc(Br)ccc2O)cc1` [Compound 482], the pest or weed control at 100 ppm was less than 25%. With `COc1ccnc(C(=O)Nc2ccc(Oc3cccc(C(F)(F)F)n3)cc2)c1O` [Compound 463], the pest or weed control at 100 ppm is less than 25%. For the compound `Cc1ncc(C(=O)N[C@H]2COC(=O)[C@H](Cc3ccccc3)[C@@H](OC(=O)C(C)C)[C@H](C)OC2=O)c(O)n1` [Compound 542], the pest or weed control at 100 ppm is less than 25%. As to `COC(=O)C(COC(=O)CCc1ccccc1)NC(=O)c1nccc(OC)c1OC(C)=O` (stereo not drawn) [Compound 583], the pest or weed control at 100 ppm lay within 25 to 74%.

As to `CC1(C)CC(NC(=O)c2ccncc2O)CC(C)(C)C1` [Compound 505], the pest or weed control at 100 ppm was 25 to 74%. Same read-out and setting: in the case of `O=C(Nc1ccc(Oc2cccc(C(F)(F)F)c2)cc1)c1cscc1O` [Compound 555] it was less than 25%.
